16 compounds from the supplement of paper PMC7266297 can be followed below.

Where a name gives a salt, the structure may show the parent alone. Some of the results follow. Repeats are few or missing, and single values can be far off.
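Note: Read-out is SRB optical density at 490 nm, with the control being wells given 0.5% DMSO vehicle, and compound added one day after cells were plated.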

The subject of the assay is KB-3-1. The experiment in a line: growth inhibition relative to DMSO control (SRB); cervical cancer cells: KB-3-1 is the parent and KB-V1 overexpresses MDR1; SRB is the sulforhodamine B stain; higher = more growth inhibition. The note with it: 1 µM; 72 h.
As to `CCOc1ccc(NC(C)=O)cc1` [Phenacetin], the growth inhibition is 27.8%. Consider `Cc1cc(Nc2nc(N[C@@H](C)c3ccc(F)cc3)c(C#N)cc2F)n[nH]1`, for which the growth inhibition came to 50%.

Turning to `C=CC(=O)Nc1cccc(Sc2nc(Nc3ccc(N4CCN(C)CC4)cc3)ncc2Cl)c1`, the growth inhibition stood at 73.5%. As for `NC(=O)N1c2ccccc2CC(=O)c2ccccc21` [Oxcarbazepine], the figure is 12.4%; as for `COc1cc(NC(=O)c2ccc(-c3ccc(Cl)cc3)o2)cc(OC)c1`, 5.56%. Consider `Cc1c(NC(=O)OC[C@@H]2COCCN2)cn2ncnc(Nc3ccc4c(cnn4Cc4cccc(F)c4)c3)c12`, for which the growth inhibition worked out at 18%. In the case of `CC1(C)CNc2cc(NC(=O)c3cccnc3NCc3ccncc3)ccc21` [Motesanib Diphosphate (AMG-706)] it was 68.1%; in that of `COc1cc2ncnc(Sc3nnc(C)s3)c2cc1OC`, 24.6%; in that of `Oc1cc(O)c(Cl)cn1` [Gimeracil], 21.6%.

The compound `O=S(=O)(c1ccccc1)c1cnc2c(N3CCNCC3)cccc2c1` returned a growth inhibition of 5.56%. Compound `CCc1cccc(CC)c1NC(=O)N1Cc2[nH]nc(NC(=O)c3ccc(N4CCN(C)CC4)cc3)c2C1` came in with a growth inhibition of 76%. As for `Nc1nc(N)c(N=O)c(OCC2CCCCC2)n1`, the figure is 29.8%; as for `CC[C@H](c1ccc(O)cc1)[C@@H](CC)c1ccc(O)cc1` [Hexestrol], 25.1%. `CCCCOc1cc(C(=O)NCCN(CC)CC)c2ccccc2n1` [Dibucaine HCl]: the growth inhibition turned out to be 32.8%.

`COc1cccc(C=NCCN=Cc2cccc(OC)c2[O-])c1[O-].[Cl-].[Mn+3]` gave a growth inhibition of 19.6%. `Cc1ccc(S(=O)(=O)NC(=O)NN2CC3CCCC3C2)cc1` (stereo unspecified) [Gliclazide] displayed a growth inhibition of 23.3%.
